Some of the results follow. The full chains were built here from the parent and the listed change. Inactive controls read about 0.05.
B1: TEV protease; numbered along this chain (parent)
chain: MGESLFKGPRDYNPISSSICHLTNESDGHTTSLYGIGFGPFIITNKHLFRRNNGTLVVQSLHGVFKVKDTTTLQQHLVDGRDMIIIRMPKDFPPFPQKLKFREPQREERICLVTTNFQTKSMSSMVSDTSCTFPSGDGIFWKHWIQTKDGQCGSPLVSTRDGFIVGIHSASNFTNTNNYFTSVPKNFMELLTNQEAQQWVSGWRLNADSVLWGGHKVFMVKPEEPFQPVKEATQL

Variants of: B1
Test: raw area under fraction-flipped curve 0-4 h after induction (AUC4h, not background-subtracted), DNA-recorder readout of cleavage of the substrate (dimensionless); higher = more cleavage of the substrate by the protease variant
Conditions: temperature: 34 °C; time window: 0-4 h after rhamnose induction
Experimental: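 In vivo DNA recorder in E. coli TOP10(DE3) ΔrhaA at 34 °C. Each TEVp single-site mutant (parent TEVp 0) is paired with a single-site variant of the 7-mer TEVs (canonical ENLYFQ|S). The substrate sits between flexible linkers in a Bxb1-sfGFP-TEVs-SsrA fusion, so cleavage stabilises Bxb1 and speeds flipping of a recombination array, read by NGS. The value is the raw area under the fraction-flipped curve over 0-4 h after rhamnose induction (AUC4h), with ≥20 reads per time point. It is not background-subtracted; inactive controls average about 0.047.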
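Note: Bxb1 expression induced with 0.2% (w/v) L-rhamnose at OD600 near 0.5, cultures sampled hourly, flipped fraction per protease–substrate barcode pair counted by paired-end Illumina sequencing.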

Variant | area with substrate ENLYAQS | area with substrate ENLYDQS | area with substrate ENLYEQS | area with substrate ENLYMQS | area with substrate ENLYSQS | area with substrate ENLYTQS | area with substrate ENLYWQS | area with substrate ENLYYQS | area with substrate ENLYGQS | area with substrate ENLYHQS | area with substrate ENLYIQS | area with substrate ENLYKQS | area with substrate ENLYLQS | area with substrate ENLYNQS | area with substrate ENLYPQS | area with substrate ENLYQQS | area with substrate ENLYCQS | area with substrate ENLYRQS | area with substrate ENLYVQS
L235V | 0.0547 | 0.0593 | 0.0581 | 0.0675 | 0.0694 | 0.0644 | 0.0754 | 0.0527 | – | – | – | – | – | – | – | – | – | – | –
L211G | 0.0773 | – | 0.063 | 0.0686 | 0.0448 | – | 0.0705 | – | 0.0609 | 0.0722 | 0.0964 | 0.0489 | 0.0768 | 0.0547 | 0.0684 | 0.0865 | – | – | –
L211E | 0.0969 | 0.0816 | – | 0.103 | – | – | 0.0951 | – | 0.0601 | 0.0681 | – | 0.0385 | – | 0.048 | 0.0912 | 0.0688 | 0.0991 | 0.0759 | –
D91Y | – | 0.0594 | – | 0.0744 | 0.0911 | – | 0.0796 | 0.0706 | 0.0723 | 0.0796 | – | – | – | – | 0.0821 | 0.0391 | 0.0728 | – | –
D27I | – | 0.0528 | 0.0598 | 0.0481 | 0.0882 | – | – | – | – | – | 0.122 | – | – | 0.0561 | 0.0639 | 0.0722 | 0.095 | 0.0575 | 0.1
T233I | 0.0783 | 0.0666 | 0.0548 | 0.0605 | – | 0.0724 | – | 0.0754 | – | – | – | – | 0.0979 | – | 0.0826 | 0.06 | – | – | 0.111
T233F | 0.0893 | 0.0669 | 0.067 | 0.0892 | 0.0701 | – | – | – | 0.0746 | 0.0654 | 0.0934 | 0.0329 | 0.0599 | 0.0623 | 0.0529 | – | 0.0755 | 0.0572 | –
A207F | 0.0797 | 0.0693 | – | 0.0492 | – | – | 0.0831 | 0.0566 | 0.0539 | 0.0946 | 0.114 | 0.0883 | 0.071 | 0.066 | – | 0.0582 | 0.0672 | – | 0.0955
Q59C | – | – | 0.0654 | 0.0821 | – | – | – | – | – | – | 0.106 | 0.072 | – | – | 0.0582 | 0.0705 | 0.0939 | 0.073 | –
P89R | – | 0.0599 | 0.066 | – | 0.0671 | – | 0.0673 | 0.0614 | 0.063 | 0.0635 | 0.0861 | 0.0599 | 0.0819 | 0.0662 | 0.0531 | – | 0.0757 | 0.061 | 0.0995
G2P | – | 0.0622 | 0.0682 | – | 0.0645 | – | 0.106 | 0.0469 | 0.0621 | 0.0694 | 0.134 | 0.0597 | – | – | – | 0.0737 | 0.091 | – | 0.146
F92Q | – | 0.0496 | 0.0656 | 0.0705 | 0.0672 | – | 0.0777 | 0.0796 | 0.0661 | 0.0534 | 0.122 | 0.0587 | 0.0641 | 0.0713 | 0.0689 | 0.06 | 0.0678 | – | 0.108
R10A | – | 0.0585 | – | – | – | – | 0.0752 | 0.0587 | – | – | 0.0999 | – | – | 0.0732 | – | – | 0.0795 | 0.0655 | –
C20I | – | 0.0608 | 0.0701 | 0.0894 | 0.0802 | 0.0879 | 0.0838 | 0.0718 | 0.0685 | 0.0715 | 0.118 | 0.0721 | – | 0.0718 | 0.0643 | 0.0531 | 0.0869 | 0.0633 | 0.0651
L61I | – | – | 0.0795 | 0.0679 | 0.041 | 0.0982 | – | – | – | 0.0879 | – | – | – | 0.0616 | – | 0.0574 | 0.0827 | – | 0.127
P14F | – | 0.0493 | 0.0704 | 0.0848 | – | 0.0728 | 0.0626 | 0.0455 | – | 0.0709 | – | 0.0592 | 0.036 | 0.0673 | 0.0701 | 0.0755 | 0.0868 | – | 0.107
H47T | – | 0.0637 | 0.0597 | 0.0748 | 0.0755 | 0.0691 | 0.0462 | 0.0693 | – | 0.0661 | 0.0564 | 0.072 | 0.0528 | 0.0556 | 0.0434 | 0.0515 | 0.0704 | 0.0704 | 0.0626
K216Y | 0.0426 | 0.0659 | 0.129 | 0.0885 | – | – | – | – | 0.059 | 0.0701 | 0.0828 | 0.0637 | 0.078 | 0.0572 | 0.0571 | – | 0.0531 | 0.0587 | 0.0524
T55P | – | 0.0372 | 0.0643 | – | 0.0559 | – | – | 0.0653 | 0.0785 | 0.0644 | – | 0.0723 | – | 0.0498 | 0.0672 | 0.0699 | 0.0729 | – | 0.15
T55W | – | 0.0793 | 0.0664 | – | 0.054 | – | 0.074 | 0.0686 | 0.0658 | 0.0703 | 0.12 | 0.0602 | – | 0.0709 | 0.0738 | – | 0.0934 | – | 0.133
G8H | – | – | 0.07 | 0.087 | – | 0.0753 | – | – | – | 0.0737 | – | – | – | 0.0844 | 0.0685 | – | 0.0913 | – | 0.166
V57H | – | – | 0.0659 | 0.0812 | – | 0.0653 | 0.0599 | – | – | 0.0691 | 0.146 | – | 0.0861 | 0.0544 | 0.0628 | 0.0576 | 0.0601 | – | 0.13
V57F | – | 0.0492 | 0.0619 | 0.103 | 0.0768 | 0.123 | – | 0.0674 | 0.0571 | 0.0691 | 0.126 | 0.0623 | – | – | – | 0.0577 | 0.0756 | 0.0675 | –
V217M | 0.0588 | 0.067 | 0.0583 | 0.0669 | – | 0.105 | – | – | – | 0.0622 | – | 0.0556 | – | 0.0633 | 0.0689 | – | – | 0.0554 | 0.0765
F41E | – | 0.0501 | – | – | – | 0.0256 | – | – | – | 0.0564 | 0.0541 | 0.05 | 0.034 | 0.0423 | – | – | 0.035 | 0.0484 | –
D79C | – | – | – | 0.0908 | – | – | – | – | – | – | – | – | – | 0.0713 | 0.0684 | – | 0.114 | 0.0631 | 0.0851
E231D | 0.0852 | 0.0663 | 0.0529 | 0.178 | 0.0861 | – | – | 0.0807 | 0.0685 | – | – | – | – | 0.0637 | – | – | – | – | –
L73M | – | – | 0.0649 | – | – | – | 0.0786 | – | 0.108 | 0.0673 | 0.0905 | 0.0587 | – | 0.0723 | – | 0.0594 | 0.0502 | 0.0597 | 0.114
S209Q | 0.0686 | 0.0554 | 0.0909 | 0.0932 | – | – | 0.0222 | – | – | 0.0644 | 0.13 | 0.0709 | – | 0.0728 | 0.0722 | 0.0624 | – | 0.0719 | 0.139
S209T | 0.0608 | – | 0.0805 | – | – | – | – | – | – | 0.0652 | 0.0967 | – | – | 0.0819 | 0.0802 | – | 0.0649 | – | –

— the supplement of paper PMC12217912
